The values that follow come from the RNAGym collection of RNA variant scans (doi:10.7554/elife.90254).

The source gives no read counts; variants with many changes may rest on few reads.

The chains are these.
B1: LINE1-mini (parent)
chain: GGCAGAGCUCAACACAGCGUGGCAAAGUGGCUGUGGCUAGACUGCC

Variants of B1 are the subject of the data set. Description: self-cleavage, relative activity (ratio to wild type); higher = more cleavage; in vitro, sequencing; the parent is a self-cleaving ribozyme.
As for C3G A14U G17A G22A C31U, the self-cleavage turned out to be 0.04. The result for U20C G22U U28C reads 0.49.

On to G5A C8A C23U G29A C37U, for which the self-cleavage stood at 0.22.

With G1C A11U C15A G17A, the self-cleavage was 0. As to C13G G35U A41U, the self-cleavage was found to be 0.16. The result for G7C G19C G40A A41G reads 0.03. For G7U A12C C46A, the self-cleavage came to 0.01. The result for C15U C18U C23A G33A G44U C45G reads 0.13. Next, G7U G27C G35U A39U: 0.21. As to C10U U32C G33C, the self-cleavage worked out at 0.04. Next, A24G U28C G33C G40C G44U: 0.01; A14U G29U C31A G35U C37U U38G G40U: 0. Next, C3G U20A U28C G36C: 2.15. With G7C G19U G30C, the self-cleavage was 0.03. For the variant C3G A11C C13A A26G G30U G36U G40A, the self-cleavage stood at 0.01.

For the variant C15U A16G U28C U32A A41U, the self-cleavage stood at 0.09. The result for G2U A12G C45G reads 0.01.

Consider C3U G19C C37G, for which the self-cleavage stood at 0. Next, C3U G19C C37A: 0.01. The result for C3U A4G C8A reads 0.13; that for G17U G19U G27C, 0.21; that for G5U G21U C37G A41U, 0.07.

C10U G27U C31U C46U: the self-cleavage was determined as 0.24.

Consider C13G G19U U38G G40U, for which the self-cleavage was found to be 0.04. Next, C3A A11U G22A: 0.01.

Take G30C U38C C45A: the self-cleavage came to 0.05. The result for G1C A14C G29C G40A reads 0.01. Next, C13G G40U C46A: 0.04. As to A16U G19A G27A C46U, the self-cleavage is 0.6. C3U A26U U32C C37U G44U: the self-cleavage came to 0.06.

Regarding G2C C3U C10U, the self-cleavage came to 0.15.

For the variant U9G G21C U32C G33A, the self-cleavage was 0.02.

With G19C U20A G27C C31G U32G U43C, the self-cleavage was 0.02. The result for G33C U38G C45G reads 0.03; that for A4G C15A G27C G40C C42U U43A, 0.03; that for A16U A25C G29A, 0.01.

As to C13U A16C G19C C37A C45U, the self-cleavage came to 0.09. Next, C10U G35A C42A: 0.01; A14U U20G U32G: 0.01. The result for U20C A25C G29U U34C G35U C45A reads 0.11; that for A25G U34A A39G A41G C42A, 0.03; that for A4U A16U C45A, 0. The result for U9C A11G G44U reads 0.05.

In the case of A6U C37U C42U, the self-cleavage came to 0.03. The result for G1U G5A C18U G22C C31A U32C G33U G44U reads 0.03; that for A4G C15A G30C C31U, 0.1. The result for G5A C13A G29C G33U C37U reads 0.02.

In the case of A11C G17C A26G U28A U32C C37U C42U, the self-cleavage was 0. The result for A4G A16G A25G C46A reads 0.02; that for G2U U34C G36U A39U, 0.03. Next, A4U A11U A14C: 0.02. For the variant G5C C8G U9G A16G A26C G33U C37U, the self-cleavage came out at 0.02. Next, A11U C15G U28G G40U: 0.01; C10A C13G G27C: 0.01; A12G C18G G33U: 0. With C10G C18G A25G U34C, the self-cleavage is 0.

Turning to A4C A6U C18A, the self-cleavage turned out to be 0.04. Next, G1C G19C U20G: 0.08; G17U A24G A25U G40U: 0.17.

As to G5A U28A G35A A41U U43C, the self-cleavage came to 0.08.

As to C13U A14U U20A G21A U28C C37A U38C G40A, the self-cleavage was 0.05.

A12U G21U C45A: the self-cleavage turned out to be 0.26. Next, A4U A12G A26U U32G U43A G44U: 0.01. For G7A U20G U43A, the self-cleavage worked out at 0.01. Take C23G G33U G40C: the self-cleavage came out at 0.01. Next, G5C U32A U34G C42U: 0.04. Next, G5C U9G G29C G33C A39G: 0.02; G2C C10U G30C: 0.15; G5A C8U U32A C37U C42A G44A: 0.24.

With C8G C18U C23A C37A, the self-cleavage was 0.15. For the variant A6G G27C G30C, the self-cleavage worked out at 0.03.

In the case of G7A A11C A24U, the self-cleavage came to 0.02. Next, C23G A25G U34G G40U: 0.03; C10U G21A C23U G27C G44U: 0.05. Next, C13U A14U G22C G29C U38G: 0.01; A11U C23A A26G U34A C42G: 0.01. Next, A11C A12U A16U C18A A25U G29U: 0.01; C10U G17U A39U: 0.46. Regarding C8U G22C C31U C45U, the self-cleavage stood at 0.07.

Turning to C10A A14G U38G, the self-cleavage came out at 0.11.

For G2U A24U U34C C37G, the self-cleavage came out at 0.02. Consider G1C G33C G35C C46A, for which the self-cleavage turned out to be 0.01. With A6C U9C G22U G29A C37U A39G C42A, the self-cleavage was determined as 0.

As for G2U A6G C10U A16C U28G G44U, the self-cleavage amounted to 0.01. As to G2U G5C U20C, the self-cleavage was found to be 0.05.

G5A A25C C45A: the self-cleavage is 0.01. Next, A24C A26G G27U U32G G40A U43C: 0; C10G C31G A39C: 0.03. Next, U9G G40C C45G: 0.06; G27U G36U G44U: 0.46.

Turning to G5C A6U U32C, the self-cleavage is 0.04. Next, C13U C18U A25G A26G U28C G29C G36C: 0.04. The result for C15G A16U G17A U28C U32A reads 0. Next, C10A C31A C37A C42A: 0; G17A A25U G29U: 0.09; A4G U9A A16C C23U: 0.04. In the case of C13A G21C C46G, the self-cleavage stood at 0.03.

As to C10A A26C G33U G40C, the self-cleavage worked out at 0. For the variant G2C G5A A41G, the self-cleavage was determined as 0.05. Turning to A4C G7A A25G, the self-cleavage came out at 0.13. G5U U28C C31A U38G C46G: the self-cleavage amounted to 0.02.

Take G2U G5A A24U C31U: the self-cleavage amounted to 0.02.

In the case of A11G C18A U32A C45G, the self-cleavage is 0.01. Regarding U9C A16C G19A G35U G44A, the self-cleavage turned out to be 0.01.

G2C A14U C15A G21U A25G: the self-cleavage is 0.02. Next, C23A G35U G44U: 0.35; A4G G22C C23U G30U G36U A39C: 0.01. The result for G2U A12C C13A U28G G33U reads 0.01; that for G22A G33A A39U, 0.11.

Turning to C18U G21U A39G, the self-cleavage came out at 0.08. Turning to G1A G2U C8U C18G G27U G36C, the self-cleavage came to 0.17. Take A16C U20C G22A U32A C42G: the self-cleavage came to 0.02. The result for A16U G30A G36C reads 0.09; that for G1C G2C C13G A14U C23U, 0.06.

On to C3U U20A A25G U34G A41U, for which the self-cleavage turned out to be 0.09. The result for G5A U9A G36A reads 0.13; that for G2U A11U G22C, 0.03; that for G5U C15U C46G, 0.19.

In the case of A16C G35C A39C, the self-cleavage came to 0.06.

For A6C C15U A25G A26C G33U, the self-cleavage came to 0.24. Regarding A12U C15A C46G, the self-cleavage was found to be 0.06.

G5A C10G G17A G35U A39U: the self-cleavage came to 0.01. Next, A6U C37G G40C: 0.01; A24G A25C G35C: 0.05. Next, C23A G29U C37G: 0.02; A25U U28C U43G: 0.01; G22A A24C C46A: 0.34. Next, A11C A14U G22A G29C: 0.01; C10A C15G U28C: 0.01; G17U G22U C46A: 0.07. As to G5C C10G G17A A26C G30U, the self-cleavage came out at 0.03. On to C3U U9A A16U G44C, for which the self-cleavage amounted to 0.03.

Consider G22C C23A U28A C46U, for which the self-cleavage is 0.26. The result for A12U G21U G27C reads 0.16. Regarding A6U G22U G29U C37A G40U, the self-cleavage turned out to be 0.14. As for C3U A6U A11G U43G G44U, the self-cleavage amounted to 0.02. The result for A4G G7U A25C G35A reads 0.28; that for C3G G5A C37G, 0.16; that for G2C C13U U32C A39G, 0.04. The result for G7A G27U U43C reads 0.43. As to C23G G30C U32A G35C, the self-cleavage was found to be 0. On to C15A G27U C31A U32G, for which the self-cleavage stood at 0.02. Next, C10U G17U G27A C42A U43C: 0.03; G22A A25G G36C A41U U43C: 0.01.

With G1A C23U C31A, the self-cleavage came out at 0.18. Next, G21C G29U G40U: 0.03; C8U G35C U38G: 0.23; C8A C10A G33U U34A C46G: 0.02. Next, G2A U9A A14U U38C: 0.35. The result for G22C U34C G36A reads 0.06; that for A6C A11G U20G G21U C45G C46U, 0.02. Take A11G A12U C23G U28C G40C: the self-cleavage is 0. Next, C15G C23U G27U U28A: 0.04. In the case of C10G A25C U32A, the self-cleavage came out at 0.06. For G21U A39C C46U, the self-cleavage is 0.1. Consider C10G A14U G21C G40C C42G C45U, for which the self-cleavage is 0.01.

Regarding G5C G29C C31A C45A, the self-cleavage was determined as 0.04.

As for G1U A4G G22U C31A, the self-cleavage came out at 0.13. Next, C3A A4U U38A: 0.17; C10U A14U A16G G17A G29A U43G: 0.03. Next, A4U A12C A14G U34A: 0.05; A4U C18U A25U C46U: 0.06; G2A G7U C31A U38G C46A: 0.04. The result for A4U G22A U38G C45U reads 0.17; that for A26C G29U G44U, 0.1. Consider C3A C10G U20G G40C, for which the self-cleavage amounted to 0.01. As for G5C C8U A14G A41U, the self-cleavage turned out to be 0.08.
